Data as given in paper PMC4336329 (PLoS ONE, 2015).
The whole screen tested about 310,000 compounds, of which about 2,200 (0.71%) showed an effect of 50% or more. Effects have a minus sign here. The list shows a part of the results.

What follows are compounds tested against human ether-à-go-go-related gene (hERG) potassium channel (human, UniProt Q12809) (assay: primary screen, population patch clamp on CHO cells stably expressing hERG).
Sequence of human ether-à-go-go-related gene (hERG) potassium channel (Q12809 whole entry, looked up): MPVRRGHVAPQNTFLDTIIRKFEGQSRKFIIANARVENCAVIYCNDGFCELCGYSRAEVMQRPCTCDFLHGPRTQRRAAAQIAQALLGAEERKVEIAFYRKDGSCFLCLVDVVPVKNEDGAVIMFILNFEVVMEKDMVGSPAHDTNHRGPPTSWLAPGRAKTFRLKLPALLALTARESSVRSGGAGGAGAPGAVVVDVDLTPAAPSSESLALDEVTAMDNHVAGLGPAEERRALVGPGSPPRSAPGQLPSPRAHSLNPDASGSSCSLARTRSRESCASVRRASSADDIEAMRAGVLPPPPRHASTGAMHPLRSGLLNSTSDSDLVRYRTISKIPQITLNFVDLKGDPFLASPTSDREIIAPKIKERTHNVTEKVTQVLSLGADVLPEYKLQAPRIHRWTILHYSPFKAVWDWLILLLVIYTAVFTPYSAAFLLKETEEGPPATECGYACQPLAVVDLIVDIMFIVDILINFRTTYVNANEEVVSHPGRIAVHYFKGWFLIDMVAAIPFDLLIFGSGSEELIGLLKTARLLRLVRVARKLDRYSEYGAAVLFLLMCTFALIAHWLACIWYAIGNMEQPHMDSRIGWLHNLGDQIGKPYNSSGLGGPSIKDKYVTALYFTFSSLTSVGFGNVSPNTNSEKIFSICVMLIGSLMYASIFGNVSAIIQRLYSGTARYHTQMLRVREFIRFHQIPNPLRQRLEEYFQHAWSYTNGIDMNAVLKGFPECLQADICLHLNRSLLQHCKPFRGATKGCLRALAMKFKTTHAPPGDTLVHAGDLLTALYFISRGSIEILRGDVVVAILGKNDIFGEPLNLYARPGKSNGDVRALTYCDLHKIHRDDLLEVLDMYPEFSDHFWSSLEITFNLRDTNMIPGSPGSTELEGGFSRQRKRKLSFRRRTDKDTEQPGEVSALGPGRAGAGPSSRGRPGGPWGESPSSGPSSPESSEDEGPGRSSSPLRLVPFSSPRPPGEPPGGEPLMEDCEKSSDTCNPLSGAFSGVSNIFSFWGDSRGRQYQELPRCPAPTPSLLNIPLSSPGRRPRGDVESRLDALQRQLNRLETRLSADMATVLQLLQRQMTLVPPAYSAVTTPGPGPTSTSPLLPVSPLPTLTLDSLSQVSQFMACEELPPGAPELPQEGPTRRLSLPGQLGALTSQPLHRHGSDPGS
With `CCOC(=O)c1c(NC(=O)COC(=O)c2ccc(Cl)nc2)sc(C(=O)N(C)C)c1C` the “hERG current change (%, negative = inhibition) at 1uM” value was 9.71%. For `Cc1scc2c1N(C(=O)CN1CCN(C)CC1)c1ccccc1NC2=O`, the “hERG current change (%, negative = inhibition) at 1uM” value was 16.5%. With `COc1cc(C=O)ccc1OCCCOc1ccccc1C(=O)O` the “hERG current change (%, negative = inhibition) at 1uM” value was 14.3%. `CCOC(=O)C1=C(c2ccccc2)NC(=S)NC1c1ccc(Cl)c([N+](=O)[O-])c1` (stereo not drawn) was tested, and the “hERG current change (%, negative = inhibition) at 1uM” value was 4.66%. `COc1cc2c(cc1OC)C(C)N(S(=O)(=O)c1ccc(C)cc1)CC2` (stereo not drawn) was tested, and the “hERG current change (%, negative = inhibition) at 1uM” value was 3.68%. With `CCc1nc(SCc2cccnc2)c2c(=O)n(C)c(=O)n(C)c2n1` the “hERG current change (%, negative = inhibition) at 1uM” value was -4.84%. For `CC1CCN(c2nc3ccc(C(=O)NCCCN4CCCCC4C)cc3s2)CC1` (stereo not drawn), the “hERG current change (%, negative = inhibition) at 1uM” value was -13.1%. For `COc1ccc(S(=O)(=O)NC(C)C)cc1C(=O)N1CCOCC1`, the “hERG current change (%, negative = inhibition) at 1uM” value was -4.16%. `O=C(c1ccc(N2CCCCS2(=O)=O)cc1)N1CCN(c2ccccc2F)CC1` was tested, and the “hERG current change (%, negative = inhibition) at 1uM” value was 10.1%. With `COc1ccc(N2CCN(C(=O)Nc3ccccc3C)CC2)cc1` the “hERG current change (%, negative = inhibition) at 1uM” value was 4.9%. In the case of `C#CCNC(=O)C1=C[C@H](C)C[C@H](OCc2ccc(CO)cc2)O1`, the “hERG current change (%, negative = inhibition) at 1uM” value is reported as 12.4%. In the case of `CC(=O)Oc1ccc(NC(=O)Cc2ccccc2)cc1`, the “hERG current change (%, negative = inhibition) at 1uM” value is reported as 16.2%. With `CCCCOC(=O)c1ccc(NC(=O)C(CCS(C)(=O)=O)NC(C)=O)cc1` (stereo not drawn) the “hERG current change (%, negative = inhibition) at 1uM” value was -5.37%. For `COc1ccc(-c2cc(NCc3ccccn3)n3ncnc3n2)cc1`, the “hERG current change (%, negative = inhibition) at 1uM” value was -5.47%. With `CCOc1ccccc1CNn1cnnc1` the “hERG current change (%, negative = inhibition) at 1uM” value was 6.93%. `O=C(N/N=C/c1cc(Br)cs1)c1ccc2c(c1)OCCO2` was tested, and the “hERG current change (%, negative = inhibition) at 1uM” value was 9.48%. In the case of `CNC(=O)c1c[nH]c2ccc(S(=O)(=O)Nc3ccccc3F)cc2c1=O`, the “hERG current change (%, negative = inhibition) at 1uM” value is reported as 14.7%. In the case of `O=C(N=Nc1c(O)[nH]c2ccc([N+](=O)[O-])cc12)c1ccccc1[N+](=O)[O-]`, the “hERG current change (%, negative = inhibition) at 1uM” value is reported as 2.75%. For `O=C(CN(Cc1ccccc1Cl)C(=O)CN1C(=O)CSc2ccccc21)NC1CC1`, the “hERG current change (%, negative = inhibition) at 1uM” value was -30.7%. In the case of `O=C(COc1ccc(/C=N/NC(=O)C(=O)N2CCCCCC2)cc1)Nc1ccccc1Cl`, the “hERG current change (%, negative = inhibition) at 1uM” value is reported as 7.53%. In the case of `CC(O)[C@H]1CNC(=O)C(=O)N1CC(C)(C)C` (stereo partly drawn), the “hERG current change (%, negative = inhibition) at 1uM” value is reported as 7.59%. With `CCn1c(/C(C#N)=N/O)nc2ccccc21` the “hERG current change (%, negative = inhibition) at 1uM” value was 6.1%. For `CCCCOc1ccc(C(=O)Nc2ccc(S(=O)(=O)Nc3onc(C)c3C)cc2)cc1`, the “hERG current change (%, negative = inhibition) at 1uM” value was 16.3%. `CCCc1c(O)nc(SCC(=O)NCCc2ccc(OC)c(OC)c2)[nH]c1=O` was tested, and the “hERG current change (%, negative = inhibition) at 1uM” value was 7.06%. With `Cc1ccccc1CN1CCN(C(=O)c2cccc(F)c2)CC1` the “hERG current change (%, negative = inhibition) at 1uM” value was 7.86%. For `Cc1nnc(SCC(=O)Nc2nnc(-c3ccccc3)o2)s1`, the “hERG current change (%, negative = inhibition) at 1uM” value was 9.86%. With `CC(C)CC(NC(=O)c1ccccc1)C(=O)OCC(=O)Nc1ccc(S(N)(=O)=O)cc1` (stereo not drawn) the “hERG current change (%, negative = inhibition) at 1uM” value was 5.8%. With `CC(=O)N(C)c1ccc(N=Cc2c(O)ccc3ccccc23)cc1` the “hERG current change (%, negative = inhibition) at 1uM” value was 6.92%. In the case of `C1=Cc2ccccc2Nc2ccccc21`, the “hERG current change (%, negative = inhibition) at 1uM” value is reported as 15.9%. In the case of `O=C(O)c1cc2cc(Oc3ccccc3)ccc2[nH]1`, the “hERG current change (%, negative = inhibition) at 1uM” value is reported as 12.5%. For `C=CCNC(=S)Nc1ccc(Cl)cc1`, the “hERG current change (%, negative = inhibition) at 1uM” value was 11.3%. With `O=C(COC(=O)CNS(=O)(=O)c1ccc(Br)cc1Cl)NC1CCCC1` the “hERG current change (%, negative = inhibition) at 1uM” value was 1.96%. With `CN(c1ccccc1C(=O)Nc1ccc(F)c(F)c1)S(C)(=O)=O` the “hERG current change (%, negative = inhibition) at 1uM” value was 7.39%. With `O=C(Nc1cccs1)Nc1c(F)cc(F)cc1Br` the “hERG current change (%, negative = inhibition) at 1uM” value was 15.6%. In the case of `Cc1ccc(-c2c(C(=O)O)c(C(=O)O)c3n2CCC3)cc1`, the “hERG current change (%, negative = inhibition) at 1uM” value is reported as 23.9%. With `Nc1ccccc1SCC(=O)N1CCc2ccccc21` the “hERG current change (%, negative = inhibition) at 1uM” value was 3.11%. `CCc1noc(C)c1C(=O)OCC(=O)N(C)c1c(N)n(Cc2ccccc2)c(=O)[nH]c1=O` was tested, and the “hERG current change (%, negative = inhibition) at 1uM” value was -3.92%. `Nc1nonc1-n1nnc(C(=O)N/N=C/c2cccc(O)c2)c1CN1CCCC1` was tested, and the “hERG current change (%, negative = inhibition) at 1uM” value was 11%. With `COc1cc(C(=O)NNC(=O)c2ccco2)cc(OC)c1OC` the “hERG current change (%, negative = inhibition) at 1uM” value was 14%. For `CCC(=O)c1cn(CC(=O)Nc2cccc(C)c2C)c2ccccc12`, the “hERG current change (%, negative = inhibition) at 1uM” value was 3.88%. For `Cc1ccnc(NC(=O)c2ccc3c(c2)OCO3)c1`, the “hERG current change (%, negative = inhibition) at 1uM” value was 0.644%. For `Nc1cc(=O)[nH]c(SCC(=O)Nc2ccc(Br)cc2)n1`, the “hERG current change (%, negative = inhibition) at 1uM” value was 10.9%. For `COc1ccc([N+](=O)[O-])cc1NC(=O)CCSCCc1ccccn1`, the “hERG current change (%, negative = inhibition) at 1uM” value was -1.8%. With `CC(C)COc1ccc(C(=O)NC(Cc2c[nH]c3ccccc23)C(=O)NN)cc1` (stereo not drawn) the “hERG current change (%, negative = inhibition) at 1uM” value was 20.5%. For `CCN1CCN(C(=O)CCNC(=O)Cn2ccc3ccccc3c2=O)CC1`, the “hERG current change (%, negative = inhibition) at 1uM” value was 11.6%. In the case of `Cc1cccnc1NC(=O)CN1C(=O)COc2ccc(Cl)cc21`, the “hERG current change (%, negative = inhibition) at 1uM” value is reported as 11.4%. With `COc1ccccc1CNC(=O)CCNS(=O)(=O)c1cccc2nsnc12` the “hERG current change (%, negative = inhibition) at 1uM” value was 6.11%. For `O=C(CCc1ccccc1)NNc1cc(N2CCCCC2)nc(N2CCCCC2)n1`, the “hERG current change (%, negative = inhibition) at 1uM” value was 8.66%. `O=C(Nc1ccc(F)cc1)c1ccc(C(=O)N2CCOCC2)cc1` was tested, and the “hERG current change (%, negative = inhibition) at 1uM” value was 9.78%. With `C=CCOc1ccc(/C=N/NC(=O)C(=O)Nc2ccccn2)cc1OC` the “hERG current change (%, negative = inhibition) at 1uM” value was -17.8%. `COc1cccc(CN(CC2CCCO2)S(=O)(=O)c2ccc(S(=O)(=O)NCC3CCCO3)cc2)c1OC` (stereo not drawn) was tested, and the “hERG current change (%, negative = inhibition) at 1uM” value was 1.47%. With `CC1(C)CC2CC(C)(CN2C(=O)COc2cccc3ccccc23)C1` (stereo not drawn) the “hERG current change (%, negative = inhibition) at 1uM” value was 1.41%. With `Cn1nccc1C(=O)NC1CCCc2c1cnn2-c1cc(F)cc(F)c1` (stereo not drawn) the “hERG current change (%, negative = inhibition) at 1uM” value was 1.03%. `COc1ccc(/C=C2\SC(=S)N(CC(=O)OCC(=O)Nc3ccc(C)cc3Cl)C2=O)cc1` was tested, and the “hERG current change (%, negative = inhibition) at 1uM” value was 10.9%. `CC(=O)Nc1cccc(/C(C)=N/NC(=O)c2ccc(Cl)cc2Cl)c1` was tested, and the “hERG current change (%, negative = inhibition) at 1uM” value was 7.02%. With `O=C(N=C1SC2CS(=O)(=O)CC2N1Cc1ccc(Cl)cc1)C1CC1` (stereo not drawn) the “hERG current change (%, negative = inhibition) at 1uM” value was 16.1%. In the case of `C/C(=N/NS(=O)(=O)c1ccccc1)c1ccc(NC(=O)C(F)(F)F)cc1`, the “hERG current change (%, negative = inhibition) at 1uM” value is reported as 2.19%.
